Our source for the binding signal values is publication PMC6212790.

This is one part of the list. At the low end of the ranking the order means little.

In this experiment the target is T1, GST-Rok (full length) (UniProt O34857).
T1 sequence: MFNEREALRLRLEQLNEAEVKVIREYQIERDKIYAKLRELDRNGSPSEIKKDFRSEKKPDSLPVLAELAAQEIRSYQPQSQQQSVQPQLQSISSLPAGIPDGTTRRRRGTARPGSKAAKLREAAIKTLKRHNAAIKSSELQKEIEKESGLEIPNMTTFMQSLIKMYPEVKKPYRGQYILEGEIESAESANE
Briefly: protein binding microarray.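 Also: rank score from −0.5 (least bound) to 0.5 (best bound).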 To be noted: Rok is a gene silencer of Bacillus subtilis; high values mean tight binding; most listed sequences are background and not binding sites; double strand, one strand shown.
As to CAGAGCGG, the binding signal is -0.22 E-score.

As to AATTCAAC, the binding signal is 0.101 E-score.

ATGGAATC showed a binding signal of 0.0396 E-score.

ACGAACTC: the binding signal is -0.0653 E-score.

Take AATGCTTG: the binding signal worked out at 0.0753 E-score.

AGGAGATC came in with a binding signal of -0.0442 E-score.

Sequence CTTGAGGC registered a binding signal of -0.242 E-score.

With AGATCGCC, the binding signal is -0.217 E-score.

Regarding CAAAAGAC, the binding signal stood at 0.0115 E-score.

GGAGTGCC displayed a binding signal of -0.363 E-score.

The sequence ATTTTGAA displayed a binding signal of 0.162 E-score.

Take GCACCTTA: the binding signal was 0.0802 E-score.

AGAAAGGG registered a binding signal of -0.227 E-score.

Consider GTGTCAGA, for which the binding signal was -0.329 E-score.

In the case of CGATATAC, the binding signal worked out at 0.239 E-score.

CGCTCCCG returned a binding signal of -0.429 E-score.

CCAGCTCG yielded a binding signal of -0.12 E-score.

The sequence AGCGTTTG returned a binding signal of 0.129 E-score.

Regarding GCAATTCC, the binding signal was found to be 0.0301 E-score.

For ATTTGGCG, the binding signal was -0.0657 E-score.

As for ACACAGGG, the binding signal is -0.156 E-score.

CGACTCGA had a binding signal of -0.107 E-score.

Take GAATATCA: the binding signal was found to be 0.18 E-score.

Sequence ACTCGCCG displayed a binding signal of -0.221 E-score.

CCAATTCC displayed a binding signal of 0.114 E-score.

Regarding GCATGTGA, the binding signal is -0.0268 E-score.

The sequence GTCCAGGA showed a binding signal of -0.143 E-score.

In turn, ACTATACG gave a binding signal of 0.0122 E-score.

CTAGGAAG returned a binding signal of -0.0907 E-score.

The sequence TCGGAGCA registered a binding signal of -0.134 E-score.

As for ATCGCTCG, the binding signal is -0.134 E-score.

ACCTAACG registered a binding signal of 0.0856 E-score.

With AGATGCTA, the binding signal was determined as 0.168 E-score.

In turn, CAACGACC showed a binding signal of -0.117 E-score.

In the case of AGCTTCCT, the binding signal amounted to 0.0336 E-score.

For the sequence AAAACTAA, the binding signal came out at 0.254 E-score.

On to CCGCGAGC, for which the binding signal is -0.199 E-score.

ACAGCGGC: the binding signal was -0.195 E-score.

Regarding AATCGTGC, the binding signal is -0.118 E-score.

On to ACTTCCTG, for which the binding signal was 0.0887 E-score.

For the sequence GAACGGTC, the binding signal was -0.186 E-score.

Sequence ACCGACAA displayed a binding signal of 7.41e-05 E-score.

In turn, CGGCTTAG had a binding signal of -0.158 E-score.

The sequence GTCGGTCA gave a binding signal of -0.0647 E-score.

For the sequence CGCTGACC, the binding signal was -0.125 E-score.

In turn, CTCTGTCA had a binding signal of -0.331 E-score.

In turn, ATGGGCTG showed a binding signal of -0.299 E-score.

Take CCCCACAG: the binding signal is -0.362 E-score.

The sequence ACACCTCT returned a binding signal of 0.138 E-score.

Turning to CCGATTAA, the binding signal was 0.06 E-score.

GCACGGAC displayed a binding signal of -0.272 E-score.

Regarding GAGACCAA, the binding signal is -0.215 E-score.

In the case of GCATAATA, the binding signal worked out at 0.246 E-score.

The sequence ATATGTCC displayed a binding signal of 0.0624 E-score.

Consider GCCTACCC, for which the binding signal is -0.247 E-score.

Turning to AAGCCCGT, the binding signal is -0.219 E-score.

For the sequence AGGGAATC, the binding signal was found to be 0.0103 E-score.

Take AGTGACGC: the binding signal is -0.0528 E-score.

In the case of GCCTTTAA, the binding signal is -0.178 E-score.

The sequence CTAGCCAA yielded a binding signal of 0.139 E-score.

AAATGAGT yielded a binding signal of 0.0798 E-score.

Turning to AGTATTCA, the binding signal is 0.223 E-score.

For the sequence CGCGACAC, the binding signal was -0.185 E-score.

As to AGGAACGA, the binding signal was -0.0324 E-score.

Sequence ACACTCCC had a binding signal of -0.189 E-score.

Consider CTACCACC, for which the binding signal was 0.319 E-score.

For CGTGAAAG, the binding signal is -0.0185 E-score.

CTGCCGAC showed a binding signal of -0.228 E-score.

In turn, CTGATCCA returned a binding signal of -0.0343 E-score.

For the sequence GACGAAGC, the binding signal was -0.195 E-score.

Turning to AATCGTAT, the binding signal is 0.186 E-score.

Turning to ATGGCGCC, the binding signal is -0.23 E-score.

CCAGCCTC came in with a binding signal of -0.345 E-score.

In the case of AGTAAGCC, the binding signal was -0.0605 E-score.

Sequence CATCGATC returned a binding signal of 0.112 E-score.

Sequence TCCCGAAA had a binding signal of -0.0156 E-score.

CGCAGTCA displayed a binding signal of -0.164 E-score.

AGGGTCCA came in with a binding signal of -0.281 E-score.

On to CCCCGAGC, for which the binding signal is -0.392 E-score.

As to AGTAGTAT, the binding signal was found to be 0.405 E-score.

AACAGCGA yielded a binding signal of -0.132 E-score.

On to GCTCCTCC, for which the binding signal was -0.29 E-score.

As to GAAAGACA, the binding signal was -0.0829 E-score.

TCAGAGGA returned a binding signal of -0.18 E-score.

The sequence GTTTGATA showed a binding signal of 0.199 E-score.

Take CATCTTCG: the binding signal is -0.101 E-score.

Take ACAATTTA: the binding signal was 0.312 E-score.

CCAGTTCA showed a binding signal of -0.0639 E-score.

As to GCCTGCCA, the binding signal was -0.218 E-score.

The sequence GTTGATCA showed a binding signal of -0.00765 E-score.

On to AGCTCCCA, for which the binding signal was -0.14 E-score.

GCCTATGA: the binding signal is -0.082 E-score.

Sequence GACACAAC had a binding signal of -0.191 E-score.

Consider CCCGTGCA, for which the binding signal was -0.123 E-score.

For the sequence CTACTCGA, the binding signal came out at 0.179 E-score.

As for TCATTCCA, the binding signal was -0.0989 E-score.

Turning to GGAGCCCC, the binding signal is -0.423 E-score.

Take GCGCAAGA: the binding signal was -0.189 E-score.

The sequence CCCTACCA came in with a binding signal of -0.0569 E-score.

In turn, CACACCAC returned a binding signal of -0.0248 E-score.

Take CAGGCGGA: the binding signal was -0.216 E-score.

As for GTCGGATA, the binding signal was 0.0954 E-score.

ACATTCTG registered a binding signal of -0.0723 E-score.

With AATATGTG, the binding signal amounted to 0.248 E-score.

For CACGGAAG, the binding signal is -0.018 E-score.

ATCAAATG yielded a binding signal of -0.0553 E-score.

AGGCTACA: the binding signal is -0.00954 E-score.

In turn, AAATCTTC showed a binding signal of 0.0578 E-score.

CTCGATCC registered a binding signal of -0.00475 E-score.

Sequence GACTTTTA had a binding signal of 0.194 E-score.

Sequence CTACTGCC registered a binding signal of 0.049 E-score.

In turn, CGGGCAGA showed a binding signal of -0.214 E-score.

Consider GTAGAGGA, for which the binding signal is -0.0583 E-score.

ACCGAAGA: the binding signal came out at 0.0215 E-score.

The sequence CATAGAGA showed a binding signal of 0.0892 E-score.

TCGAATCA showed a binding signal of -0.0502 E-score.

Regarding AATCTAGC, the binding signal was found to be 0.2 E-score.

Consider ACATCGTG, for which the binding signal was determined as 0.0127 E-score.

Sequence GCAAGGGA yielded a binding signal of -0.226 E-score.

With CTAAGCAG, the binding signal was -0.152 E-score.

Regarding GAGGCCTA, the binding signal was -0.0425 E-score.

With TAAATCAA, the binding signal is 0.22 E-score.

In turn, GTCGTTAA came in with a binding signal of 0.0409 E-score.

GCAGCACA had a binding signal of -0.0624 E-score.

As to AATGATAC, the binding signal was determined as 0.282 E-score.

For ATTTATAG, the binding signal came to 0.398 E-score.

GAAGGTGC had a binding signal of -0.256 E-score.

The sequence AAAGATAG came in with a binding signal of 0.105 E-score.

AGTATTGC: the binding signal is 0.121 E-score.

CGACGGAA: the binding signal was -0.0212 E-score.

With CCCTTCCA, the binding signal was -0.361 E-score.

Sequence CCTACCGC registered a binding signal of -0.00889 E-score.

Take CCTGAGCC: the binding signal was -0.402 E-score.

Turning to CCTTTATA, the binding signal was found to be 0.203 E-score.

In the case of GCGTCCTA, the binding signal is -0.102 E-score.

CTCTACGC: the binding signal was -0.107 E-score.

ATCTGTTG came in with a binding signal of 0.0207 E-score.

In turn, CGATCTAC yielded a binding signal of 0.371 E-score.

In turn, GGTGATGA had a binding signal of -0.0632 E-score.

The sequence AGGGGTTC showed a binding signal of -0.215 E-score.

ACAATTGC: the binding signal was 0.171 E-score.

CGTTGACC displayed a binding signal of -0.0875 E-score.

On to CACTCTTA, for which the binding signal was -0.0607 E-score.

In turn, GAGAATAA yielded a binding signal of 0.0741 E-score.

Consider AGGAAAAG, for which the binding signal is -0.291 E-score.

For the sequence ACAGCACC, the binding signal was -0.0663 E-score.

Take CACCGGGA: the binding signal was -0.422 E-score.

The sequence CCACGTAA returned a binding signal of 0.0542 E-score.

Sequence ACCTAACT displayed a binding signal of 0.173 E-score.

Take AGATTAAC: the binding signal turned out to be 0.181 E-score.

The sequence CGTGGAGC had a binding signal of -0.191 E-score.

In the case of AAGTATAC, the binding signal turned out to be 0.251 E-score.

The sequence ACACGCAT registered a binding signal of 0.234 E-score.

TGCTGGAA had a binding signal of -0.0855 E-score.

For the sequence CATCTCAA, the binding signal was -0.0148 E-score.

CAAACTTA showed a binding signal of 0.162 E-score.

For GTCAGGAA, the binding signal was -0.107 E-score.

AGTAGGCG displayed a binding signal of -0.0783 E-score.

In turn, TGCACGAA displayed a binding signal of 0.0368 E-score.

Sequence GCAAGCTA returned a binding signal of -0.0525 E-score.

ACCACGAC had a binding signal of 0.0231 E-score.

Regarding CCCTCCCA, the binding signal was -0.249 E-score.

Turning to AGGAAAAT, the binding signal came to 0.215 E-score.

Sequence CATTTAAA gave a binding signal of 0.14 E-score.

For AAGCATTA, the binding signal is 0.156 E-score.

GATGCCAA yielded a binding signal of -0.188 E-score.

On to GGCCAAGA, for which the binding signal was -0.00611 E-score.

For the sequence GACCGGAC, the binding signal was -0.187 E-score.

In the case of AATTGAAT, the binding signal came to 0.0729 E-score.

Consider AAGCCACC, for which the binding signal is -0.219 E-score.

For the sequence GCACGAAC, the binding signal was -0.218 E-score.

ACGAATTG: the binding signal was 0.15 E-score.
